The values below are quoted from earlier work in PMC7035970 (Cell chemical biology, 2019).

This series has as its system M. tuberculosis H37Rv. The following applies: mouse; cited from earlier work.

Take `O=[N+]([O-])c1ccc(/C=N/Nc2nc(Nc3ccccc3)nc(Nc3ccccc3)n2)o1` [JSF-2019, (E)-6-(2-((5-nitrofuran-2-yl)methylene)hydrazinyl)-N2,N4-diphenyl-1,3,5-triazine-2,4-diamine]: the “in vivo efficacy in acute M. tuberculosis infection model” value is reported as “lacked in vivo efficacy”.
